Data taken from the supplement of paper PMC9334596.
“And” between values parts separate entries of the source, which are not always exact repeats. Identical values can stand only once. Whole data set: some 5,300 compounds, median “PER2::LUC luminescence relative to vehicle control” near 0.96, cut for the highest 2% near 1.3. Some of the results follow.

System: mPer2Luc MEF
Test: PER2::LUC luminescence relative to vehicle control (fold of vehicle); higher = higher PER2::LUC reporter signal
Conditions: 10 µM
How it was run: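 Each value gives PER2::LUC luminescence as fold of vehicle control, measured with the ONE-Glo luciferase assay system in mouse embryonic fibroblasts carrying the mPer2Luc reporter. Cells grown in DMEM with 10% FBS at 37 °C and 5% CO2 were seeded at ~3000 per well in 384-well plates. Library compounds were added at 10 μM 48 h later, and readings were taken 24 h and 30 h after treatment.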

Nc1ncnc2nc(-c3ccc(N4CCOCC4)nc3)cc(-c3cccc(Br)c3)c12
PER2::LUC luminescence (time after treatment 24 h): 0.907
PER2::LUC luminescence (time after treatment 30 h): 0.868

c1ccc2c(Oc3nc(Nc4ccc(N5CCOCC5)cc4)c4ncn(C5CCCCC5)c4n3)cccc2c1
PER2::LUC luminescence (time after treatment 24 h): 1.04
PER2::LUC luminescence (time after treatment 30 h): 1.08

CCOC(=O)CCC(=O)O[C@H]1[C@H](O[C@@H]2[C@@H](C)[C@H](O[C@H]3C[C@@](C)(OC)[C@@H](O)[C@H](C)O3)[C@@H](C)C(=O)O[C@H](CC)[C@@](C)(O)[C@H](O)[C@@H](C)C(=O)[C@H](C)C[C@@]2(C)O)O[C@H](C)C[C@@H]1N(C)C
PER2::LUC luminescence (time after treatment 24 h): 0.927
PER2::LUC luminescence (time after treatment 30 h): 0.998

COc1cc(NC(=O)c2ccc(-c3ccc(Cl)cc3)o2)cc(OC)c1
PER2::LUC luminescence (time after treatment 24 h): 0.947
PER2::LUC luminescence (time after treatment 30 h): 1.04

C[n+]1cccc(C(=O)[O-])c1
PER2::LUC luminescence (time after treatment 24 h): 1.01 and 0.913
PER2::LUC luminescence (time after treatment 30 h): 1.04 and 0.928

COc1cc(C)c(/C=C/C(C)=C/C=C/C(C)=C/C(=O)O)c(C)c1C
PER2::LUC luminescence (time after treatment 24 h): 1.82
PER2::LUC luminescence (time after treatment 30 h): 2.04

CC(C)OC(=O)CCC/C=C\C[C@@H]1[C@@H](CC[C@@H](O)CCc2ccccc2)[C@H](O)C[C@@H]1O
PER2::LUC luminescence (time after treatment 24 h): 0.885
PER2::LUC luminescence (time after treatment 30 h): 0.933

CC(C)(F)C[C@H](N[C@@H](c1ccc(-c2ccc(S(C)(=O)=O)cc2)cc1)C(F)(F)F)C(=O)NC1(C#N)CC1
PER2::LUC luminescence (time after treatment 24 h): 0.945
PER2::LUC luminescence (time after treatment 30 h): 0.902

O=C(Nc1ccccc1)C12C=C1C(=NO)c1ccccc1O2 (stereo not given)
PER2::LUC luminescence (time after treatment 24 h): 1.08
PER2::LUC luminescence (time after treatment 30 h): 0.974

CN(C)CCc1c[nH]c2ccc(C[C@H]3COC(=O)N3)cc12
PER2::LUC luminescence (time after treatment 24 h): 0.968
PER2::LUC luminescence (time after treatment 30 h): 1.16

O=C1c2cccc(O)c2C(=O)c2c(O)cc(CO)cc21
PER2::LUC luminescence (time after treatment 24 h): 1.01
PER2::LUC luminescence (time after treatment 30 h): 1.02

CN(C)CCC=C1c2ccccc2C=Cc2ccccc21
PER2::LUC luminescence (time after treatment 24 h): 0.35
PER2::LUC luminescence (time after treatment 30 h): 0.5

CC(=O)O[C@H]1CC[C@]2(C)[C@H]3CC=C4[C@@H]5CC(C)(C)CC[C@]5(C)CC[C@@]4(C)[C@]3(C)CC[C@H]2C1(C)C
PER2::LUC luminescence (time after treatment 24 h): 1.07
PER2::LUC luminescence (time after treatment 30 h): 0.99

COc1cc(/C=C/C(=O)O)ccc1O
PER2::LUC luminescence (time after treatment 24 h): 1.04
PER2::LUC luminescence (time after treatment 30 h): 1.06

C[N+]1(C)CCC(=C(c2ccccc2)c2ccccc2)CC1
PER2::LUC luminescence (time after treatment 24 h): 1.05 and 1.08
PER2::LUC luminescence (time after treatment 30 h): 0.967 and 0.929

NS(=O)(=O)c1cc2c(cc1Cl)NCNS2(=O)=O
PER2::LUC luminescence (time after treatment 24 h): 1
PER2::LUC luminescence (time after treatment 30 h): 0.871

O=C(NC1CCOCC1)c1ccc(-c2cc(-c3c[nH]nc3-c3ccccn3)ccn2)cc1
PER2::LUC luminescence (time after treatment 24 h): 0.936
PER2::LUC luminescence (time after treatment 30 h): 0.865

O=C1C(=O)N(Cc2ccc(Cl)c(Cl)c2)c2ccccc21
PER2::LUC luminescence (time after treatment 24 h): 0.666
PER2::LUC luminescence (time after treatment 30 h): 0.802

COc1ccc(C(=O)N2CCN(C(=O)/C=C/c3ccc(Br)cc3)CC2)cc1
PER2::LUC luminescence (time after treatment 24 h): 1.06
PER2::LUC luminescence (time after treatment 30 h): 0.954

CNNCc1ccc(C(=O)NC(C)C)cc1
PER2::LUC luminescence (time after treatment 24 h): 0.827
PER2::LUC luminescence (time after treatment 30 h): 0.897

Nc1ccc(C(=O)Oc2ccccc2)c(O)c1
PER2::LUC luminescence (time after treatment 24 h): 0.958
PER2::LUC luminescence (time after treatment 30 h): 1.54

O=c1[nH]c(=O)n([C@H]2C[C@H](O)[C@@H](CO)O2)cc1F
PER2::LUC luminescence (time after treatment 24 h): 1.1
PER2::LUC luminescence (time after treatment 30 h): 0.725

NCCCCN(Cc1nc2ccccc2[nH]1)[C@H]1CCCc2cccnc21
PER2::LUC luminescence (time after treatment 24 h): 0.946
PER2::LUC luminescence (time after treatment 30 h): 0.739

C/C(=N\NC(=S)N1CCC1)c1ccccn1
PER2::LUC luminescence (time after treatment 24 h): 0.15
PER2::LUC luminescence (time after treatment 30 h): 0.137

CC1=C(/C=C/C(C)=C/C=C/C(C)=C/C(=O)Nc2ccc(O)cc2)C(C)(C)CCC1
PER2::LUC luminescence (time after treatment 24 h): 0.452 and 1.09
PER2::LUC luminescence (time after treatment 30 h): 0.603 and 1.06

NC(=O)c1ncn([C@@H]2O[C@H](CO)[C@@H](O)[C@H]2O)c1N
PER2::LUC luminescence (time after treatment 24 h): 1.32 and 0.733
PER2::LUC luminescence (time after treatment 30 h): 1.18 and 0.988

COc1cc2c(cc1OC)[C@@H](c1ccccc1)CN(C)CC2
PER2::LUC luminescence (time after treatment 24 h): 1.1
PER2::LUC luminescence (time after treatment 30 h): 1

CC1=CC(=O)CC(C)(C)C1(O)/C=C/C(C)=C\C(=O)O (mixture of isomers)
PER2::LUC luminescence (time after treatment 24 h): 0.994
PER2::LUC luminescence (time after treatment 30 h): 0.957

Nc1ncnc2c1ncn2[C@@H]1O[C@H](COP(=O)(O)O)[C@@H](O)[C@H]1O
PER2::LUC luminescence (time after treatment 24 h): 1.22 and 1.13
PER2::LUC luminescence (time after treatment 30 h): 1.14 and 1.05

CCC(=O)O[C@H]1[C@H](O[C@@H]2[C@@H](C)[C@H](O[C@H]3C[C@@](C)(OC)[C@@H](O)[C@H](C)O3)[C@@H](C)C(=O)O[C@H](CC)[C@@](C)(O)[C@H](O)[C@@H](C)C(=O)[C@H](C)C[C@@]2(C)O)O[C@H](C)C[C@@H]1N(C)C
PER2::LUC luminescence (time after treatment 24 h): 0.918
PER2::LUC luminescence (time after treatment 30 h): 0.918

CC(=O)Oc1cc(C(C)C)c(OCCN(C)C)cc1C
PER2::LUC luminescence (time after treatment 24 h): 0.402
PER2::LUC luminescence (time after treatment 30 h): 1

O=C(O)c1cc(O)c2c(c1)[C@H]([C@H]1c3cc(C(=O)O)cc(O)c3C(=O)c3c(O[C@@H]4O[C@H](CO)[C@@H](O)[C@H](O)[C@H]4O)cccc31)c1cccc(O[C@@H]3O[C@H](CO)[C@@H](O)[C@H](O)[C@H]3O)c1C2=O
PER2::LUC luminescence (time after treatment 24 h): 0.767
PER2::LUC luminescence (time after treatment 30 h): 1.03

C[C@@H]1C(=O)O[C@H]2C[C@@]34[C@H]5C[C@@H](C(C)(C)C)[C@]36[C@@H](OC(=O)[C@@H]6O)O[C@@]4(C(=O)O5)[C@]21O
PER2::LUC luminescence (time after treatment 24 h): 1.02
PER2::LUC luminescence (time after treatment 30 h): 0.98

CC(c1cc2ccccc2s1)N(O)C(N)=O (stereo not given)
PER2::LUC luminescence (time after treatment 24 h): 0.877
PER2::LUC luminescence (time after treatment 30 h): 1.31

COc1cc(O)c(C(C)=O)c(OC)c1
PER2::LUC luminescence (time after treatment 24 h): 0.941
PER2::LUC luminescence (time after treatment 30 h): 0.952

Nc1ccn(C[C@@H](CO)OCP(=O)(O)O)c(=O)n1
PER2::LUC luminescence (time after treatment 24 h): 1.07
PER2::LUC luminescence (time after treatment 30 h): 1.02

O=C1c2ccccc2C(=O)c2c(NCCc3ccc(O)cc3)ccc(NCCc3ccc(O)cc3)c21
PER2::LUC luminescence (time after treatment 24 h): 0.998
PER2::LUC luminescence (time after treatment 30 h): 0.835

COc1ccc(Nc2nccc(NCCO)n2)cc1
PER2::LUC luminescence (time after treatment 24 h): 1.05
PER2::LUC luminescence (time after treatment 30 h): 0.976

CN(C)CCCOc1nn(Cc2ccccc2)c2ccccc12
PER2::LUC luminescence (time after treatment 24 h): 0.564
PER2::LUC luminescence (time after treatment 30 h): 0.631

O=C1c2c(O)cc(O)cc2OC(c2ccc(O)c(O)c2)C1O (stereo not given)
PER2::LUC luminescence (time after treatment 24 h): 0.873
PER2::LUC luminescence (time after treatment 30 h): 0.963

O=C1c2c(O)cc(O)cc2O[C@H](c2ccc(O)c(O)c2)[C@H]1O
PER2::LUC luminescence (time after treatment 24 h): 0.967 and 0.966
PER2::LUC luminescence (time after treatment 30 h): 0.947 and 0.931

OC[C@@H](O)[C@@H](O)[C@H](O)[C@@H](O)CO
PER2::LUC luminescence (time after treatment 24 h): 1.05 and 0.934
PER2::LUC luminescence (time after treatment 30 h): 1.02 and 0.989

S=C=Nc1ccc(N=C=S)cc1
PER2::LUC luminescence (time after treatment 24 h): 1.12 and 0.633
PER2::LUC luminescence (time after treatment 30 h): 0.975 and 0.89

O=c1c(O)c(-c2ccccc2O)oc2cc(O)cc(O)c12
PER2::LUC luminescence (time after treatment 24 h): 0.983
PER2::LUC luminescence (time after treatment 30 h): 0.996

Cn1cc(C(=O)OCC2CCN(CCNS(C)(=O)=O)CC2)c2ccccc21
PER2::LUC luminescence (time after treatment 24 h): 1.01
PER2::LUC luminescence (time after treatment 30 h): 0.969

C#C[C@]1(O)CC[C@H]2[C@@H]3[C@H](C)CC4=C(CCC(=O)C4)[C@H]3CC[C@@]21C
PER2::LUC luminescence (time after treatment 24 h): 0.925
PER2::LUC luminescence (time after treatment 30 h): 0.974

CC(C)(C)c1cc(C(=O)C(C#N)=NNc2cccc(Cl)c2)no1
PER2::LUC luminescence (time after treatment 24 h): 1.1
PER2::LUC luminescence (time after treatment 30 h): 1.11

CC(=O)OCC(=O)[C@@]1(O)CC[C@H]2[C@@H]3CCC4=CC(=O)C=C[C@]4(C)[C@@]3(F)[C@@H](O)C[C@@]21C
PER2::LUC luminescence (time after treatment 24 h): 0.602
PER2::LUC luminescence (time after treatment 30 h): 0.941

COc1cc(C(=O)N2CCOCC2)cc(OC)c1OC
PER2::LUC luminescence (time after treatment 24 h): 0.835
PER2::LUC luminescence (time after treatment 30 h): 0.821

CC(=O)OCC(=O)[C@@]1(O)CC[C@H]2[C@@H]3CCC4=CC(=O)CC[C@]4(C)[C@H]3C(=O)C[C@@]21C
PER2::LUC luminescence (time after treatment 24 h): 1.2 and 1.11
PER2::LUC luminescence (time after treatment 30 h): 0.827 and 1.07
